Assay results as given in patent US20180201654A1 (UNIVERSITY OF SOUTHERN CALIFORNIA, published 2018).

Target: T1, vIRF4 (Kaposi's-sarcoma-associated-herpesvirus vIRF4), full length wild type (Kaposi's-sarcoma-associated-herpesvirus …, UniProt Q2HR73 1-911)
T1 sequence: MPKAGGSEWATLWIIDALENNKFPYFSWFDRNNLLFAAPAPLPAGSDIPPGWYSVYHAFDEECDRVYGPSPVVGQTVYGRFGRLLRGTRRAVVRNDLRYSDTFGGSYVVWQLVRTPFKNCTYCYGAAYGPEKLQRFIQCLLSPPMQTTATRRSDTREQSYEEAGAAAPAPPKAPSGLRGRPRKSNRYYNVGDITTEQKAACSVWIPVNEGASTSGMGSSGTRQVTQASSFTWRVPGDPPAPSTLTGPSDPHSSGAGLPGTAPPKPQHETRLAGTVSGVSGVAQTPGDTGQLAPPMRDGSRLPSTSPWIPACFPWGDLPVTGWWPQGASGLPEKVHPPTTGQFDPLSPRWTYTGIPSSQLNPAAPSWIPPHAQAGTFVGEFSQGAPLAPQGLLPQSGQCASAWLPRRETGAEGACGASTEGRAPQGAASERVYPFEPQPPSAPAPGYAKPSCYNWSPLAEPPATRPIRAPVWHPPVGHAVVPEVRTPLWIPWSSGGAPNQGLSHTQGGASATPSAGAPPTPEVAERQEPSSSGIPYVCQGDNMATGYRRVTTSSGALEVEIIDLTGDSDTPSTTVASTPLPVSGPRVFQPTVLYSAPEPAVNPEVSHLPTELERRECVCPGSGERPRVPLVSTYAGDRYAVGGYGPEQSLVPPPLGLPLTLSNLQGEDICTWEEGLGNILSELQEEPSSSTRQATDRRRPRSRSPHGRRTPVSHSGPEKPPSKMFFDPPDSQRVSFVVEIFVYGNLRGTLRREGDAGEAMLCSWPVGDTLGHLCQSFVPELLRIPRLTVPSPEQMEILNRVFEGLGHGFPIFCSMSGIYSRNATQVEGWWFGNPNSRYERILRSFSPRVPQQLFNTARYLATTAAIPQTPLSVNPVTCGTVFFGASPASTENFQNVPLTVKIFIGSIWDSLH
Assay: co-immunoprecipitation from transfected 293T cells, IP: V5, IB: Flag

B1: Flag/HAUSP […] (enzyme)
single chain: not shown
B1: binds.
